# PubChem BioAssay AID360 (National Center for Advancing Translational Sciences (NCATS), 2006)
# In all, about 48,000 compounds went through this assay and about 550 (1.1%) were called active. Roughly 4% stayed inconclusive and do not appear here. No stated cut-off is given here; in the data, active means potency below about 15 µM; inconclusive means mostly about 16 µM to 33 µM; inactive means weaker than that. The list shows a part of the results.
# Target: Lysosomal acid glucosylceramidase (Homo sapiens) (UniProt P04062)
# UniProt P04062, sequence (P04062 whole entry, looked up): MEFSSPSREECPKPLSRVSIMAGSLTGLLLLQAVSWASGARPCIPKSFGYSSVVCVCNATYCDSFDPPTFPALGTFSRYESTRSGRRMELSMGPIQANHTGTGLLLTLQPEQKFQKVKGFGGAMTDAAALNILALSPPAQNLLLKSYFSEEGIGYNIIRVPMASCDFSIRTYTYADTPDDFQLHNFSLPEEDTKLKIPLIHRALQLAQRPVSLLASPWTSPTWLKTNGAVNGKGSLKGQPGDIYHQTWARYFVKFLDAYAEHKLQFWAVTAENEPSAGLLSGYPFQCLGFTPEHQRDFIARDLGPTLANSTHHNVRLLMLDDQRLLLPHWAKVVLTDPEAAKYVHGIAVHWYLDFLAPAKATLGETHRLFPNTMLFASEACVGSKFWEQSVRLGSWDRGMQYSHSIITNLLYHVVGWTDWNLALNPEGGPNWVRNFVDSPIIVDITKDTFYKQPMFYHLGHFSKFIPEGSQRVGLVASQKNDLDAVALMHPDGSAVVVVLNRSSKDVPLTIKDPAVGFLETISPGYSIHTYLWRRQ
# Assay: Glucocerebrosidase;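 further: the screen sought inhibitors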
# Conditions: purified enzyme, resorufin glucoside fluorescence (screen aimed at inhibitors), 20 min
# Procedure, shortened: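 Wild-type enzyme at 0.2 nM final in 50mM citric acid/KH2PO4, 10mM sodium taurocholate, 0.01% tween-20, pH 5.9, with resorufin beta-D-glucopyranoside at 30 uM final. Compounds titrated, 20 min at RT, red fluorescence read; AC50 from titration.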
# Potency means the concentration at half of the fitted maximal effect.
row,SMILES,Potency
1,Cc1noc(C)c1S(=O)(=O)N1CCCC(C(=O)Nc2ccc(Cl)cn2)C1 (configuration not stated),inactive: > 76.9 µM
2,O=C(O)C1C2CCC(C2)C1C(=O)Nc1cc(F)ccc1F (configuration not stated),inactive: > 76.9 µM
3,COc1cc(C(Nc2ccccn2)c2ccc3ccc(C)nc3c2O)cc(OC)c1O (configuration not stated),inactive: > 76.9 µM
4,CN(c1nc2c(c(=O)n(C)c(=O)n2C)n1CC(=O)c1ccccc1)C1CCCCC1,inactive: > 76.9 µM
5,COC(=O)c1ccc(C2NC(=O)NC(C)=C2C(=O)N(C)C)cc1 (configuration not stated),inactive: > 76.9 µM
6,C/C(=N\O)C(=O)NCCN1CCCCC1,inactive: > 76.9 µM
7,O=C(Nc1cnc2sccn2c1=O)c1ccccc1Cl,inactive: > 76.9 µM
8,COc1ccc(N2CCN(C(=O)c3ccc(C)c(Cl)c3)CC2)cc1,inactive: > 76.9 µM
9,CCCc1nnc(NC(=O)C2CCCO2)s1 (configuration not stated),inactive: > 76.9 µM
10,CCOC(=O)N1CCN(C(=O)CCn2c(=S)[nH]c3cc(OCC)c(OCC)cc3c2=O)CC1,inactive: > 76.9 µM
11,COc1ccc(CCNC(=O)CSc2nc(O)c(CC(C)C)c(=O)[nH]2)cc1OC,inactive: > 76.9 µM
12,Cc1ccc(C(=O)N2Cc3ccccc3CC2C(=O)O)cc1 (configuration not stated),inactive: > 76.9 µM
13,CC(C)(C)NC(=O)C1CCC(C)(C(=O)O)C1(C)C (configuration not stated),inactive: > 76.9 µM
14,CCOc1ccccc1NC(=O)Cn1nnc(C(=O)NCc2ccco2)c1N,inactive: > 76.9 µM
15,CC(C)(C)NC(=O)C(c1ccc(F)cc1)N(Cc1ccco1)C(=O)c1csnn1 (configuration not stated),inactive: > 76.9 µM
16,COc1ccc2nc(COC(=O)c3ccco3)c(C(C)=O)[n+]([O-])c2c1,inactive: > 76.9 µM
17,COc1ccc(CNCC(O)COCc2cccs2)cc1 (configuration not stated),inactive: > 76.9 µM
18,c1cnc(N2CCN(c3ncnc4c3oc3ccccc34)CC2)nc1,active: 5.7 µM
19,CC1CN(S(=O)(=O)c2ccccc2)CC(C)O1 (configuration not stated),inactive: > 76.9 µM
20,O=C(O)CCCn1nc(C(F)(F)F)c2c1CCCCC2,inactive: > 76.9 µM
21,CCCCC(=O)Nc1ncc(Br)s1,inactive: > 76.9 µM
22,COCCNC(=O)c1c[nH]c2cc(OC)c(OC)cc2c1=O,inactive: > 76.9 µM
23,O=C(O)Cc1ccc(NC(=O)c2cccs2)cc1,inactive: > 76.9 µM
24,O=C(OC1CCOC1=O)c1ccc2ncsc2c1 (configuration not stated),inactive: > 76.9 µM

row,SMILES,Potency
1,COc1cccc(C2CC(C(F)(F)F)n3ncc(C(=O)O)c3N2)c1 (configuration not stated),inactive: > 76.9 µM
2,Cc1cccc(NC(=O)COc2ccccc2C)n1,inactive: > 76.9 µM
3,O=C(Cc1ccccc1)N1CCC(c2nc3ccccc3[nH]2)CC1,inactive: > 76.9 µM
4,O=C1OCCC1Sc1nc2cc(Cl)ccc2s1 (configuration not stated),inactive: > 76.9 µM
5,COC(=O)C1=C(NC(=O)c2cccc(OC)c2)CCS1,inactive: > 76.9 µM
6,Clc1ccc(Oc2nc(Oc3ccc(Cl)cc3)nc(N3CCOCC3)n2)cc1,inactive: > 76.9 µM
7,CCOc1ccc(C(=O)OCC(=O)NCc2ccco2)cc1OCC,inactive: > 76.9 µM
8,Cc1cnc(NC(=O)CN2CCN(c3ccccn3)CC2)s1,inactive: > 76.9 µM
9,Cc1ccc(-n2nc(C)c3c2OC(N)=C(C#N)C3c2ccoc2)cc1 (configuration not stated),inactive: > 76.9 µM
10,CCCc1cc(N2CCCC(C(=O)NCc3ccc4c(c3)OCO4)C2)n2ncnc2n1 (configuration not stated),inactive: > 76.9 µM
11,CN1CCN(S(=O)(=O)c2ccc(NC(=O)c3cccs3)cc2)CC1,inactive: > 76.9 µM
12,O=C(O)c1ccc2[nH]c3c(c2c1)CSCC3,inactive: > 76.9 µM
13,Cc1ccc(C)c(N2CCN(C(=O)CCNC(=O)Cn3ccc4ccccc4c3=O)CC2)c1,inactive: > 76.9 µM
14,COc1ccccc1NC(=O)N(Cc1ccco1)Cc1cc2c(C)ccc(C)c2[nH]c1=O,inactive: > 76.9 µM
15,CCN(CC)c1ccc(NC(=O)c2cccc(OC)c2)c(C)c1,inactive: > 76.9 µM
16,O=C(NC1CCCc2ccccc21)c1cccnc1 (configuration not stated),inactive: > 76.9 µM
17,CCCC1(CCC)NC(=O)N(CC(=O)Nc2cccc(OC)c2)C1=O,inactive: > 76.9 µM
18,Cc1cc(C)n2nc(SCc3cc(=O)n4c(C)cccc4n3)nc2n1,inactive: > 76.9 µM
19,COc1ccc(-c2cc(C(F)(F)F)nc(N3CCOCC3)n2)cc1OC,inactive: > 76.9 µM
20,CC1(C(=O)N(c2ccccc2)C(C(=O)NC2CCCC2)c2ccccn2)CC(=O)N=C2C=CC=CN21 (configuration not stated),inactive: > 76.9 µM
21,C=C(C)CSc1nnc(-c2ccc(OC)c(OC)c2)n1N,inactive: > 76.9 µM
22,COc1cc2cc(C(=O)O)n(C)c2c(OC)c1OC,inactive: > 76.9 µM
23,CCOC(=O)N1CCC(NC(=O)CCc2nc(-c3ccccc3F)no2)CC1,inactive: > 76.9 µM
